Experimental data published in the supplement of paper PMC7826260.
The list shows a part of the results. The data describe in vitro nicking of single-stranded DNA by Rep domains (3 µM enzyme, 1 h, 37 °C); shown is the middle of each 90-letter strand. Values are log2 of uncut reads against the no-enzyme pool; more negative means more cut, near 0 not cut, and no call is made. Reads are scaled to the total; values above 0 arise when much of the pool is cut.

Experiments:
Assay in all cases: uncleaved DNA left, log2 of reads against the no-enzyme library (log2 ratio); higher = less cleavage (more negative = more Rep cleavage of the k-mer); sequences stand for … in CTCGTCCG…ACCGGAGA
[1] = test system: T1, Rep nickase domain of Muscovy duck circovirus
T1 sequence (protein, residues 1-111, tag omitted): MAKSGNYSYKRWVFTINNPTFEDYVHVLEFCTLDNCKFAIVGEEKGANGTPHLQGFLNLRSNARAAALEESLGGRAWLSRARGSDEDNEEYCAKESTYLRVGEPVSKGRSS
Method: (§1)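 A pool of 90-nt single-stranded DNAs with seven random bases just before the constant AC of the nick site (name = the seven bases) was cut by 3 µM recombinant His6-SUMO-tagged Rep nickase domain (300 nM DNA, 50 mM HEPES pH 8.0, 50 mM NaCl, 1 mM MnCl2, 1 h, 37 °C, three replicates). Uncut DNA was amplified and sequenced.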

[2] = test system: T2, Rep nickase domain of banana bunchy top virus
T2 sequence (protein, residues 1-94, tag omitted): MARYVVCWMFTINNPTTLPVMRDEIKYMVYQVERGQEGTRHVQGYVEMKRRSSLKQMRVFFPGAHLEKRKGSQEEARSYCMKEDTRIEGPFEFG
Method: as §1

[3] = test system: T3, Rep nickase domain of cabbage leaf curl virus
T3 sequence (protein, residues 1-116, tag omitted): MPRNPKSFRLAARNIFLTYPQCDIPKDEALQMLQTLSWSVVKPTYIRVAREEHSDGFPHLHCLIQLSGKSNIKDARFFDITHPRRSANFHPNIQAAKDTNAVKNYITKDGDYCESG
Method: as §1

[4] = test system: T4, Rep nickase domain of chickpea chlorotic dwarf virus
T4 sequence (protein, residues 1-124, tag omitted): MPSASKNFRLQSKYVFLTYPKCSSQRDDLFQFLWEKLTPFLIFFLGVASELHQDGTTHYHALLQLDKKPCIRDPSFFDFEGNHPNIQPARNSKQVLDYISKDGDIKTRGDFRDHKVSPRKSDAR
Method: as §1

[5] = test system: T5, Rep nickase domain of faba bean necrotic yellows virus
T5 sequence (protein, residues 1-98, tag omitted): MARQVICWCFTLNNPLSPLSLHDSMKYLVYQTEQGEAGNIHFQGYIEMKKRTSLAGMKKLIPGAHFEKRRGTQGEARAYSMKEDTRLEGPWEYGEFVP
Method: as §1

[6] = test system: T6, Rep nickase domain of maize striate mosaic virus
T6 sequence (protein, residues 1-117, tag omitted): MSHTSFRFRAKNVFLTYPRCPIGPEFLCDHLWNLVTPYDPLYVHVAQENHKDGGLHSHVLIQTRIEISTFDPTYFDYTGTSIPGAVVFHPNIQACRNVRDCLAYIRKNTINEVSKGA
Method: as §1

[7] = test system: T7, Rep nickase domain of porcine circovirus 2
T7 sequence (protein, residues 2-116, tag omitted): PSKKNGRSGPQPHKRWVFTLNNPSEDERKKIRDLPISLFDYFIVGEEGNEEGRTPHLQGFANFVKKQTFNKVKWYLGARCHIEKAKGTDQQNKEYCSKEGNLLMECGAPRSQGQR
Method: as §1

[8] = test system: T8, Rep nickase domain of tomato golden mosaic virus
T8 sequence (protein, residues 1-124, tag omitted): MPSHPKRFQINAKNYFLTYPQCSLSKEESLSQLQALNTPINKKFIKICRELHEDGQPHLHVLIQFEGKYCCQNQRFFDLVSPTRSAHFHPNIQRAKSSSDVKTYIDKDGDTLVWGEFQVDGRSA
Method: as §1

[9] = test system: T9, Rep nickase domain of tomato yellow leaf curl virus
T9 sequence (protein, residues 1-136, tag omitted): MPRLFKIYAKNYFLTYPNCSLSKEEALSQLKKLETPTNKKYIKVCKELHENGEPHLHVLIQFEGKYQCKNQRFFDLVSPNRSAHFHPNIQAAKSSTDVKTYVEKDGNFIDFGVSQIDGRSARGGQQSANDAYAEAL
Method: as §1

[10] = test system: T10, Rep nickase domain of wheat dwarf virus
T10 sequence (protein, residues 1-137, tag omitted): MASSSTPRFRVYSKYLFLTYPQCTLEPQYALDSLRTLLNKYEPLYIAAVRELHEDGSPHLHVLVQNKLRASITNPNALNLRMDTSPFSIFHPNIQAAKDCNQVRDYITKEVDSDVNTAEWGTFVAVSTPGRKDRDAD
Method: as §1

Sequence	uncleaved DNA left (log2) [1]	uncleaved DNA left (log2) [2]	uncleaved DNA left (log2) [3]	uncleaved DNA left (log2) [4]	uncleaved DNA left (log2) [5]	uncleaved DNA left (log2) [6]	uncleaved DNA left (log2) [7]	uncleaved DNA left (log2) [8]	uncleaved DNA left (log2) [9]	uncleaved DNA left (log2) [10]
TCGTTGC	-0.00126	-0.223	-0.801	-0.236	0.0957	-1.12	0.0568	-0.223	0.0777	-0.215
GAACGCC	0.16	0.0911	0.232	0.164	-0.0132	0.403	0.123	0.0338	0.1	0.0193
CCTAGGA	-0.0505	-0.0314	0.161	0.426	-0.000787	-0.29	0.0483	0.103	0.0265	-0.071
AAAATGC	-0.00188	0.00962	-0.685	-0.603	-0.0169	-1.28	0.057	0.0365	0.0615	-0.0494
TACTGCT	-3.43	-1.93	-2.78	-2.69	-0.0114	-1.19	-3.35	-0.256	0.0427	-0.138
GTGAACG	0.154	0.0626	-0.35	-0.243	-0.0492	-0.52	0.143	0.0707	-0.0195	0.0237
GCGAGAG	-0.0456	0.0621	-0.0968	0.433	0.0211	-0.0602	0.155	0.0818	0.0275	0.153
GGTCCCT	-0.0213	0.0587	0.305	0.65	0.00903	1.63	-0.0475	-0.0252	0.079	0.079
TCATCTC	-0.205	-0.0991	-0.309	-0.648	-0.247	-0.109	-0.191	-0.197	-0.211	-0.104
GGTGGGA	0.0836	0.0914	0.581	1.3	-0.0104	1.75	0.227	0.0249	0.0268	0.128
AATTGCC	-0.169	-0.147	-0.794	-0.11	-0.0629	-1.02	0.00036	-0.206	-0.0122	-0.136
AACAAGT	0.0824	0.122	0.0294	-0.932	0.0209	-0.799	-1.17	0.111	0.06	0.0949
CAGTCCC	0.00719	-0.0298	0.0111	-0.157	-0.19	0.0398	-2.74	0.022	0.0653	0.0818
AGGTATC	0.00433	0.0795	0.289	0.466	0.0412	0.407	-0.0932	-0.0166	0.0918	0.0877
GACTAGA	0.092	0.0726	0.141	0.485	0.0819	0.193	-0.177	0.0661	0.0658	0.0709
TTGAGTA	0.159	0.0141	-0.136	-0.818	0.0469	-0.921	-0.499	0.1	0.0243	-0.00143
TGCCTGT	-0.21	-0.158	-0.151	0.0989	-0.1	0.5	-0.151	-0.102	-0.157	-0.0575
TGACAAT	0.129	0.216	0.632	0.978	0.0466	1.66	0.138	0.154	0.189	0.227
GCGGTGG	0.101	-0.0451	-0.0988	0.312	-0.0584	0.439	-0.0127	-0.0371	-0.0461	-0.196
CATGATA	-0.0554	-0.124	-0.226	-2.12	-0.12	-0.51	-0.101	0.024	-0.0583	-0.122
GAGGAAA	0.0541	0.104	0.674	1.66	0.0659	1.88	0.16	0.126	0.0704	0.161
ACTTGGT	-0.198	-0.15	-0.384	-0.811	-0.0322	-1.05	-1	0.00326	-0.0685	-0.107
ACCTTAT	-0.0265	0.0757	-0.0896	-0.824	0.0339	-0.664	-1	0.0664	-0.05	0.0271
CCGTCTT	-1.85	-0.473	-0.887	-2.11	-1.01	-0.301	-2.88	-0.589	-0.111	-1.51
AAGTTGA	0.0427	0.0747	0.19	0.24	0.0575	0.253	-2.03	0.128	0.0959	0.145
CGAAAGG	-0.0178	0.0958	0.229	0.922	0.165	0.35	0.12	0.136	0.106	0.106
CTTTGCG	0.00852	0.0862	-0.213	1.22	0.174	0.961	0.147	-0.0793	-0.0813	-0.0516
ACAACCG	0.0278	0.0977	-0.611	0.0795	0.107	-0.501	0.233	0.0632	0.0208	0.0173
CGCCACA	-0.0331	-0.0218	-0.0406	-0.799	-0.0931	-0.177	-0.073	0.0127	0.0152	-0.112
CTGCTGG	0.148	-0.0344	-0.172	0.043	0.149	-0.58	0.133	0.0263	0.0373	-0.0766
